ChEMBL document CHEMBL4888484, “Replenishing the malaria drug discovery pipeline: Screening and hit evaluation of the MMV Hit Generation Library 1 (HGL1) against asexual blood stage Plasmodium falciparum ,using a nano luciferase reporter read-out” (2022)
In all, about 150,000 compounds went through this assay and about 540 (0.36%) showed an effect of 50% or more. The list shows a part of the results.

What follows are molecules tested on Plasmodium falciparum (assay: Primary screen in NF54 nanoGlo assay, in single point, at 2uM, 72h; a lower Z score goes with more inhibition). Settings: timepoint 72 hour.
Format: functional, Erythrocyte

In order of falling “% Inhibition” value:
1. O=C(Nc1ccc2c(c1)OCO2)[C@@H](c1cccc(F)c1)N(Cc1ccc(F)cc1)C(=O)Cn1nnc2ccccc21  36%
2. CS(=O)(=O)N1C[C@H]2CN(C(=O)CCc3ccccc3)CC[C@@]2(CO)C1  3%
3. CN1CCN(S(=O)(=O)c2cccc(Br)c2)c2ccccc2C1  2%
4. CCCc1cc(C(=O)N(C)CC[C@H]2CCCCO2)no1  0%
5. Cc1c(Cl)ccc2c1N(C(=O)CCc1cnn(C)c1)CCC2  -1%
6. CCc1ncc(CN(C)S(C)(=O)=O)s1  -2%
7. Cc1ccc2c(c1)C(=O)N(C)[C@@H](c1cccc3cccnc13)N2  -2%
8. CCC(=O)N(C)[C@@H](CO)c1cc(OC)ccc1Br  -4%
9. COc1ccccc1CNC(=O)C1CCN(S(=O)(=O)c2cc3c(cc2C)NC(=O)CO3)CC1  -4%
10. CCCn1ccnc1CN1CCNC(=O)[C@@H]1Cc1ccccc1  -5%
11. COc1ccccc1CCN(C)C(=O)c1nc2c(s1)CCC2  -6%
12. CCn1cc(CCN2CCC(c3nc4cccc(C)c4o3)CC2)cn1  -7%
13. COC[C@H](NC(=O)N1CC=C(c2c(C)[nH]c3ccccc23)CC1)C1CC1  -7%
14. CCOC(=O)N1CCC(Nc2nc(C)c(C(=O)Nc3ccccc3)s2)CC1  -8%
15. c1cc(-c2nc([C@H]3CCOC3)no2)c2nccnc2c1  -8%
16. CC(C)c1cc(C(=O)N2CC[C@H](O)C2)cs1  -9%
17. C[C@@]1(C(=O)NC2CCCCCCC2)CCC(=O)N1CCc1ccc(Cl)cc1  -10%
18. Cn1c(=O)[nH]c(=O)c2c1nc(N1CCc3ccccc3C1)n2CCCc1ccccc1  -10%
19. COc1cccc(NC(=O)c2nc(-c3cn(Cc4ccc(F)cc4)nn3)no2)c1  -10%
20. CCOc1ccccc1CNC(=O)C1CCN(c2ncnc3c2nc2n3CCCCC2)CC1  -11%
21. CN(C(=O)c1cnn(C(C)(C)C)c1)S(C)(=O)=O  -12%
22. O=C(Cc1cn2cc(F)ccc2n1)Nc1ccc(Cl)cc1Cl  -12%
23. Cc1ccc2c(Cl)c(C(=O)Nc3ccc(S(=O)(=O)N4CCCC[C@@H]4C)cc3)sc2c1  -12%

In order of rising Z score:
1. O=C(Nc1ccc2c(c1)OCO2)[C@@H](c1cccc(F)c1)N(Cc1ccc(F)cc1)C(=O)Cn1nnc2ccccc21  -4.11
2. CS(=O)(=O)N1C[C@H]2CN(C(=O)CCc3ccccc3)CC[C@@]2(CO)C1  -0.39
3. CN1CCN(S(=O)(=O)c2cccc(Br)c2)c2ccccc2C1  -0.36
4. CCCc1cc(C(=O)N(C)CC[C@H]2CCCCO2)no1  -0.09
5. Cc1c(Cl)ccc2c1N(C(=O)CCc1cnn(C)c1)CCC2  0.15
6. CCc1ncc(CN(C)S(C)(=O)=O)s1  0.25
7. Cc1ccc2c(c1)C(=O)N(C)[C@@H](c1cccc3cccnc13)N2  0.43
8. CCC(=O)N(C)[C@@H](CO)c1cc(OC)ccc1Br  0.45
9. COc1ccccc1CNC(=O)C1CCN(S(=O)(=O)c2cc3c(cc2C)NC(=O)CO3)CC1  0.45
10. CCn1cc(CCN2CCC(c3nc4cccc(C)c4o3)CC2)cn1  0.85
11. COc1ccccc1CCN(C)C(=O)c1nc2c(s1)CCC2  0.86
12. CCCn1ccnc1CN1CCNC(=O)[C@@H]1Cc1ccccc1  0.86
13. COC[C@H](NC(=O)N1CC=C(c2c(C)[nH]c3ccccc23)CC1)C1CC1  1.19
14. CN(C(=O)c1cnn(C(C)(C)C)c1)S(C)(=O)=O  1.2
15. CCOC(=O)N1CCC(Nc2nc(C)c(C(=O)Nc3ccccc3)s2)CC1  1.22
16. C[C@@]1(C(=O)NC2CCCCCCC2)CCC(=O)N1CCc1ccc(Cl)cc1  1.28
17. O=C(Cc1cn2cc(F)ccc2n1)Nc1ccc(Cl)cc1Cl  1.47
18. c1cc(-c2nc([C@H]3CCOC3)no2)c2nccnc2c1  1.53
19. CC(C)c1cc(C(=O)N2CC[C@H](O)C2)cs1  1.54
20. Cc1ccc2c(Cl)c(C(=O)Nc3ccc(S(=O)(=O)N4CCCC[C@@H]4C)cc3)sc2c1  1.61
21. CCOc1ccccc1CNC(=O)C1CCN(c2ncnc3c2nc2n3CCCCC2)CC1  1.83
22. Cn1c(=O)[nH]c(=O)c2c1nc(N1CCc3ccccc3C1)n2CCCc1ccccc1  1.95
23. COc1cccc(NC(=O)c2nc(-c3cn(Cc4ccc(F)cc4)nn3)no2)c1  1.97
